Laboratory results published in patent US6407099B1, “Arylpiperidinopropanol and arylpiperazinopropanol derivatives and pharmaceuticals containing the same” (Suntory Limited, priority 1997, dated 2002).
At least one structure is not confirmed: it was looked up by name or label, or the drawing left a doubt.

Test system: Sodium channel
Assay: Inhibitory effect of veratrizine-induced sodium channel activity (synaptozome membrane potential, Rhodamine 6G)
Assay type: biochemical, Wistar rats
Conditions: compound 0.1 μM; rat brain synaptozomes, veratrizine-induced depolarization
Excerpt: Inhibitory Effect of Veratrizine-induced Sodium Channel Activity

Structure (SMILES)	Anti-veratrizine effect (inhibiting rate %) [%]
Cc1cc(OC[C@@H](O)CN2CCC(O)(c3ccc(-c4ccccc4)c(F)c3)CC2)c(C)c(C)c1N [Compound 30]	23.5
Cc1cc(OC[C@@H](O)CN2CCN(c3ccc(Cc4ccc(F)cc4)cc3)CC2)c(C)c(C)c1N [Compound 28, (2S)-1-[(4-amino-2,3,5-trimethyl)phenoxy]-3-[4-(4-(4-fluorophenyl)methylphenyl)piperazin-1-yl]-2-propanol]	27.9
Cc1cc(N)c(C)c(C)c1OC[C@@H](O)CN1CCN(c2ccc(Cc3ccc(F)cc3)cc2)CC1 [Compound 40, (2S)-1-[(4-amino-2,3,6-trimethyl)phenoxy]-3-[4-(4-(4-fluorophenyl)methylphenyl)piperazin-1-yl]-2-propanol]	33.9
Cc1cc(OC[C@@H](O)CN2CCC(c3ccc(Cc4ccc(F)cc4)cc3)CC2)c(C)cc1N [Compound 33, (2S)-1-[(4-amino-2,5-dimethyl)phenoxy]-3-[4-(4-(4-fluorophenyl)methylphenyl)piperidin-1-yl]-2-propanol]	19.5
Cc1cc(C)c(OC[C@@H](O)CN2CCC(c3ccc(Cc4ccc(F)cc4)cc3)CC2)c(N)c1 [Compound 47, (2S)-1-[(2-amino-4,6-dimethyl)phenoxy]-3-[4-(4-(4-fluorophenyl)methylphenyl)piperidin-1-yl]-2-propanol]	30.5
Cc1c(N)ccc(OC[C@@H](O)CN2CCC(c3ccc(Oc4ccccc4)cc3)CC2)c1C [Compound 35, (2S)-1-[(4-amino-2,3-dimethyl)phenoxy]-3-[4-(4-phenoxyphenyl)piperidin-1-yl]-2-propanol]	23.2
COc1ccc(NCC(O)CN2CCC(c3ccc(Cc4ccc(F)cc4)cc3)CC2)c(C)c1 (stereo not shown) [Compound 54]	24.2
Cc1cc(OC[C@@H](O)CN2CCC(c3ccc(Oc4ccccc4)cc3)CC2)c(C)c(C)c1N [Compound 26, (2S)-1-[(4-amino-2,3,5-trimethyl)phenoxy]-3-[4-(4-phenoxyphenyl)piperidin-1-yl]-2-propanol]	42.2
Cc1cc(C)c(OC[C@@H](O)CN2CCC(c3ccc(Oc4ccccc4)cc3)CC2)c(N)c1 [Compound 46, (2S)-1-[(2-amino-4,6-dimethyl)phenoxy]-3-[4-(4-phenoxyphenyl)piperidin-1-yl]-2-propanol]	29.4
Cc1cc(N)c(C)c(C)c1OC[C@@H](O)CN1CCC(c2ccc(Oc3ccccc3)cc2)CC1 [Compound 38, (2S)-1-[(4-amino-2,3,6-trimethyl)phenoxy]-3-[4-(4-phenoxyphenyl)piperidin-1-yl]-2-propanol]	43.9
Nc1cc(Cl)c(OC[C@@H](O)CN2CCC(c3ccc(Oc4ccccc4)cc3)CC2)c(Cl)c1 [Compound 51, (2S)-1-[(4-amino-2,6-dichloro)phenoxy]-3-[4-(4-phenoxyphenyl)piperidin-1-yl]-2-propanol]	39.8
Cc1cc(OC[C@@H](O)CN2CCC(c3ccc(OC4CCCC4)cc3)CC2)c(C)c(C)c1N [Compound 31, (2S)-1-[(4-amino-2,3,5-trimethyl)phenoxy]-3-[4-(4-cyclopentyloxyphenyl)piperidin-1-yl]-2-propanol]	20
Cc1cc(OC[C@@H](O)CN2CCN(c3ccc(Cc4ccc(F)cc4)cc3)CC2)c(C)cc1N [Compound 34]	17.2
Cc1cc(OC[C@@H](O)CN2CCC(c3ccc(Oc4ccccc4)cc3)CC2)c(C)cc1N [Compound 32]	14.5
COc1ccc(N)cc1OC[C@@H](O)CN1CCN(c2ccc(Cc3ccc(F)cc3)cc2)CC1 [Compound 44, (2S)-1-[(5-amino-2-methoxy)phenoxy]-3-[4-(4-(4-fluorophenyl)methylphenyl)piperazin-1-yl]-2-propanol]	12.2
COc1ccc(NCC(O)CN2CCN(c3ccc(Cc4ccc(F)cc4)cc3)CC2)c(C)c1 (stereo not shown) [Compound 55]	21.3
Cc1cc(C)c(OC[C@@H](O)CN2CCN(c3ccc(Cc4ccc(F)cc4)cc3)CC2)c(N)c1 [Compound 48, (2S)-1-[(2-amino-4,6-dimethyl)phenoxy]-3-[4-(4-(4-fluorophenyl)methylphenyl)piperazin-1-yl]-2-propanol]	17.5
Cc1c(C)c(NCC(O)CN2CCC(c3ccc(Oc4ccccc4)cc3)CC2)c(C)c(C)c1N (stereo not shown) [Compound 58, 3-[(4-amino-2,3,5,6-tetramethyl)phenylamino]-1-[4-(4-phenoxyphenyl)piperidin-1-yl]-2-propanol]	25.8

Same assay, conditions: compound 0.1 μM; rat brain synaptozomes, veratrizine-induced depolarization; 0.1 µM

Structure (SMILES)	Anti-veratrizine effect (inhibiting rate %) [%]
Cc1c(N)ccc(OC[C@@H](O)CN2CCC(c3ccc(Cc4ccc(F)cc4)cc3)CC2)c1C [Compound 36, (2S)-1-[(4-amino-2,3-dimethyl)phenoxy]-3-[4-(4-(4-fluorophenyl)methylphenyl)piperidin-1-yl]-2-propanol]	23.3
COc1ccc(NCC(O)CN2CCC(c3ccc(Oc4ccccc4)cc3)CC2)c(C)c1 (stereo not shown) [Compound 53, 1-[4-(4-phenoxyphenyl)piperidin-1-yl]-3-[(4-methoxy-2-methyl)phenylamino]-2-propanol]	23.8
COc1ccc(NC[C@H](O)CN2CCC(c3ccc(Oc4ccccc4)cc3)CC2)c(C)c1 [Compound 57]	25.8
COc1ccc(NC[C@@H](O)CN2CCC(c3ccc(Oc4ccccc4)cc3)CC2)c(C)c1 [Compound 56, (2R)-1-[4-(4-phenoxyphenyl)piperidin-1-yl]-3-[(4-methoxy-2-methyl)phenylamino]-2-propanol]	28.5
